In publication PMC5836133:
Some of the results follow. At the low end of the ranking the order means little.

The sequences below were run on T1, GST-NbGlk1(82-244) (assay: protein-binding microarray). Settings: NbGlk1 is a Golden2-like transcription factor of Nicotiana benthamiana; high values mean tight binding; most listed sequences are background and not binding sites; double strand, one strand shown.
T1 sequence: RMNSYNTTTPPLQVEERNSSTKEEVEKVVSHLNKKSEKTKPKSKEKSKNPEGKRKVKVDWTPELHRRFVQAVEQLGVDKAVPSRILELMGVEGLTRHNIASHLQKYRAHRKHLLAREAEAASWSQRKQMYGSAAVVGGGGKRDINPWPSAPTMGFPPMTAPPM
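Also: rank-based score ranging −0.5 to +0.5 with E above 0.45 taken as significant binding.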

Row | Sequence | binding signal [E-score]
1 | ATCGTAAC | 0.244
2 | AACGCTGC | -0.0879
3 | ATGCAGAC | -0.144
4 | CAACCAGA | 0.0468
5 | ATCACGAC | 0.17
6 | ACAGATAT | 0.415
7 | ATCCTTTG | 0.201
8 | CAAAATTA | 0.0949
9 | ATGCGTTC | -0.115
10 | ATCCGGCG | 0.083
11 | ACGATCCT | 0.272
12 | AACTCTTG | -0.0858
13 | ACGGCCGT | -0.0422
14 | AGCTCATG | -0.193
15 | ACGGTCAT | -0.0803
16 | AAGAATGA | 0.0221
17 | AGCCTGCA | -0.233
18 | ACATTACT | 0.0636
19 | ATAGTTCG | -0.0776
20 | AAATGCAC | -0.0725
21 | CACATCTC | -0.0459
22 | AACCCGAG | -0.197
23 | ATGAGACA | 0.0389
24 | ATGTACAT | 0.123
25 | AAGCGCCT | -0.17

Row | Sequence | binding signal [E-score]
26 | ATTAAAAC | -0.0516
27 | AATTCGGA | 0.17
28 | AAAGGACA | 0.0338
29 | ATCCGGAC | 0.272
30 | AAGGGCTG | -0.302
31 | AACCGCAG | -0.0931
32 | ACACGGGG | 0.00936
33 | ACAGCATC | 0.0298
34 | AGGCTATC | -0.0876
35 | AGCCTAGG | -0.317
36 | CACGTTGA | -0.151
37 | AGGGGGGA | -0.137
38 | AGCAGTTC | -0.0663
39 | AAACGTAG | -0.0281
40 | ACGGCTGC | -0.271
41 | ATATAGGA | 0.175
42 | AAGACGCC | -0.268
43 | ACAAACTG | -0.128
44 | ATACTGGA | 0.0298
45 | ACCGTGTG | -0.21
46 | ATTACTCG | 0.219
47 | ATCCTCCG | 0.257
48 | AGTGTACC | -0.149
49 | ACTTCGGG | -0.154
50 | AACACGCA | 0.0515

Row | Sequence | binding signal [E-score]
51 | ACCAATCG | 0.0759
52 | ATATACTC | 0.244
53 | AAGCCTGA | -0.0987
54 | ACCTTATC | -0.1
55 | ATCCTGCG | 0.207
56 | AGTTAGGC | -0.0872
57 | AATAGCAT | 0.0615
58 | ACACTTAC | -0.00522
59 | ATTGTAAA | 0.12
60 | ACCAAGGT | -0.141
61 | ATTTTTGA | 0.24
62 | AGCAATGG | -0.199
63 | CAACCGCC | -0.174
64 | AGCCTGCC | -0.303
65 | AAACACCC | -0.191
66 | AATCAACT | 0.274
67 | ACGTCTAT | -0.0157
68 | AGGGGCGG | -0.34
69 | ACCCGTGC | -0.179
70 | AAGCATGC | -0.119
71 | AGCCACGC | -0.24
72 | ACTGCAAG | -0.0497
73 | AACTGCCC | -0.156
74 | AGCACTGC | -0.106
75 | AATCGAGT | 0.167

Row | Sequence | binding signal [E-score]
76 | ACAACTCT | -0.0583
77 | ACTCTCGA | -0.15
78 | AACGCGGG | -0.168
79 | AGGCCTCC | -0.184
80 | CAGATACA | 0.19
81 | AGTCAGGG | -0.253
82 | AACGGCCG | -0.0619
83 | AGTACAAA | 0.141
84 | ACAAGGGT | -0.145
85 | ACAGCGAA | -0.00907
86 | AAATGCTG | -0.0373
87 | ACGGGTTA | -0.0663
88 | AGAACAGA | 0.14
89 | ATTAGGAG | -0.0201
90 | AAGTTGGC | -0.118
91 | CAAACGCC | -0.22
92 | AGTCAAGA | -0.00495
93 | AGCGCCCT | -0.285
94 | ATAGTCTG | 0.0529
95 | ATCGTGCG | 0.234
96 | AGCTACTG | -0.136
97 | AACATGCG | -0.0932
98 | AGATGCGG | 0.0273
99 | AGCGAGGA | -0.0427
100 | ATGACCTG | -0.169

Row | Sequence | binding signal [E-score]
101 | ATCGGAGA | 0.249
102 | CACATTGA | -0.0147
103 | ACCAGAAG | -0.253
104 | ATAATTGA | 0.0587
105 | ATAATAAA | 0.187
106 | CACAATCA | 0.27
107 | ATCATCCA | 0.171
108 | ACGGCAGG | -0.243
109 | AGAGATTA | 0.298
110 | AGATCCCC | 0.378
111 | CAAGTCTG | -0.238
112 | AGAAGGCT | -0.294
113 | AAAAAATT | 0.204
114 | AATTACCA | 0.152
115 | ACGATCCC | 0.156
116 | ACTTACAC | 0.0281
117 | ACGCAGCG | -0.096
118 | AGAAATCT | 0.465
119 | ACTTCAGA | 0.0253
120 | ATTACACC | 0.334
121 | AACCCGTA | 0.00606
122 | CAACAACC | -0.17
123 | AGGCCACT | -0.264
124 | CAAAATGC | -0.0674
125 | ATCACGAT | 0.29

Row | Sequence | binding signal [E-score]
126 | ACGCCGCA | -0.208
127 | ATAGGAAC | -0.08
128 | AACGGACG | -0.177
129 | AGAACGGG | -0.0636
130 | ATAGTGAA | 0.0599
131 | ACACGGGA | 0.0384
132 | ACTATCCA | 0.145
133 | CAGCCAGG | -0.174
134 | ATCCGTAC | 0.226
135 | AATGTCGT | -0.0573
136 | AACTTACG | 0.0976
137 | ACTATTCG | 0.0591
138 | AGGATCGC | 0.357
139 | AAACGCCT | -0.113
140 | AAGTGACT | -0.192
141 | ATGGCAAA | 0.0695
142 | ATCGAGTC | -0.0798
143 | ACCGGAAC | -0.175
144 | ACAGGTGC | -0.201
145 | CACTAGTC | -0.128
146 | CAGATTGA | 0.0826
147 | AACCTGAT | 0.133
148 | ACTTCTCT | 0.0596
149 | ATATGTAC | 0.12
150 | ACTTATTC | -0.0512

Row | Sequence | binding signal [E-score]
151 | AAAATCCA | 0.454
152 | ATACGCCC | 0.0464
153 | ACAGAGCA | -0.112
154 | ACTAACAC | -0.192
155 | AGCTAACT | -0.214
156 | ACTGGCTA | -0.211
157 | AACTCTGA | 0.0132
158 | AGCGAATG | 0.0432
159 | ACCCTCGA | -0.248
160 | ATCTTAGC | 0.246
161 | CACTTCTA | -0.167
162 | CACGCGAG | -0.0324
163 | AAGTAACA | -0.0919
164 | ACAGCTGG | -0.158
165 | AATGTAAA | 0.146
166 | CACGCGCG | 0.0351
167 | AACCCGTG | -0.133
168 | AACCTGGG | -0.233
169 | ACACGTTC | -0.133
170 | ATCATGCG | 0.000838
171 | AATGTCGC | -0.0312
172 | CACCGGGG | -0.127
